From PubChem BioAssay AID1347120 (National Center for Advancing Translational Sciences (NCATS), 2019)
The campaign covered roughly 390,000 compounds. About 930 (0.24%) were called active. Inconclusive results, whose numbers are uncertain, are shown with a selection of clear calls. Calls follow the shape of the dose curve; as a rule, active = well fitted activation curve with a large enough effect; inconclusive = small, poorly fitted or top-dose-only effect; inactive = no such curve, though single readings can be large or run the other way. A potency beside an inconclusive call is a rough fit, not a confirmed value.

Test: qHTS for Suppressors of FUS Proteinopathy: Primary screen using FUS-linked yeast assay; also: nearly all actives have a fitted effect of over 55% in size;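 as to growth rescue (activation): plate controls were DMSO vehicle for no effect and reference control for full effect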
Conditions: S. cerevisiae FUS-expressing, OD600, 24 h; Potency: growth rescue; growth rescue (activation): at 76.6 µM (top of the series)
Method in brief: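 Yeast expressing FUS under galactose induction, OD 0.005 in 2% galactose medium; compounds in a dilution series, 24 h at 30C. Growth rescue by absorbance at 600 nm; CP55940 positive control, DMSO negative.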
Potency is read from the fitted curve at half-maximal effect; tags tell the direction and shape of the fitted curve.

SMILES | growth rescue (activation) | Potency
CC(C)c1nnc(SCC(=O)NCc2ccco2)n1C | inconclusive: 51.4% [activator] | –
O=C(OC1CCOC1=O)c1ccc(N2CCCC2)c([N+](=O)[O-])c1 (centres undefined) | inactive: 8.03% | –
CC(C)C[C@@]12C(=O)N(c3ccc(Br)cc3)C(=O)N1[C@H](c1ccc(Br)cc1)[C@@H]1C(=O)N(C(C)(C)C)C(=O)[C@@H]12 | – | inconclusive: 22.4 µM [activator, partial curve]
Cc1cc2nc(-c3ccc(SCC(=O)N4CCN(C(=O)c5ccco5)CC4)nc3)[nH]c2cc1C | – | inconclusive: 35.5 µM [activator, partial curve, poor fit]
CCOc1ccc(N2CC(c3nc4ccccc4n3CCCOc3ccccc3)CC2=O)cc1 (centres undefined) | – | inconclusive: 28.2 µM [activator, single point]
COc1ccccc1NC(=O)c1c(NCc2ccc(OC)c(OC)c2OC)sc2c1CCC2 | – | inconclusive: 50.1 µM [activator, single point]
CS(=O)(=O)N1CCN(c2ccc([N+](=O)[O-])c3cccnc23)CC1 | inactive: -12.2% | –
COC(=O)C1CN(Cc2ccc(OC)cc2)CCS(=O)(=O)N1Cc1cn(Cc2ccc(Cl)cc2)nn1 (centres undefined) | – | inconclusive: 25.1 µM [activator, single point]
COc1cccc(-c2ncnn2-c2sc3c(c2C#N)CCCCC3)c1OC | inactive: -1.31% | –
COc1ccc(OC)c(NC(=O)Nc2ccc(O)c3ccccc23)c1 | – | active: 28.2 µM
Cc1nnsc1C(=O)NC1CCCc2c1cnn2-c1ccccc1F (centres undefined) | inactive: 8.66% | –
N#C/C(=C/c1ccc(-c2ccc(S(N)(=O)=O)cc2)o1)c1nc2ccccc2s1 | – | inconclusive: 39.8 µM [activator, partial curve, poor fit]
COCc1nnc(NS(=O)(=O)c2ccc(NC(C)=O)cc2)s1 | inactive: -6.92% | –
COC(=O)[C@]12CCCCC=C1N(Cc1cccc3ccccc13)C(=O)[C@H](CC(=O)NCc1ccc(OC)c(OC)c1)C2 | – | inconclusive: 44.7 µM [activator, single point]
O=C1CC(N2CCN(C3CCc4ccccc4C3)CC2)C(=O)N1c1ccccc1 (centres undefined) | inconclusive: 83.1% [activator] | –
CC1=C(C#N)C(NC(=O)c2ccccc2Cl)(C(F)(F)F)C(=O)N1 (centres undefined) | inactive: -1.55% | –
CN(C(=O)c1cccnc1)c1nc(-c2ccccc2)cs1 | inconclusive: 78.7% [activator] | –
COc1ccc(/C=C/C(=O)Nc2ccc3nc4c(c(Nc5ccccc5OC)c3c2)CCCC4)cc1 | – | inconclusive: 25.1 µM [activator, partial curve, poor fit]
CC1=NNC(=O)/C1=C\c1cn(-c2ccccc2)nc1-c1ccc(F)cc1 | – | inconclusive: 35.5 µM [activator, single point]
CC1C(=O)N2CCCc3cc(NC(=O)C(=O)NCCc4c[nH]c5ccccc45)cc1c32 (centres undefined) | – | inconclusive: 10 µM [activator, full curve]
Cc1cccc(Sc2ccc([N+](=O)[O-])cn2)c1 | inactive: -4.09% | –
Cc1noc(/C=C/N(C)C)c1S(=O)(=O)N1CCCC(C(=O)NCc2cccs2)C1 (centres undefined) | – | inconclusive: 50.1 µM [activator, single point]

SMILES | growth rescue (activation) | Potency
COc1ccc(-n2c(SCC(=O)Nc3cc(C)c(NC(=O)c4ccccc4)cc3OC)nnc2-c2ccco2)cc1 | – | active: 11.2 µM
Cc1sc(N/N=C/c2cccnc2)nc1-c1ccccc1 | – | inconclusive: 35.5 µM [activator, partial curve, poor fit]
C[C@H](CO)N1C[C@H](C)[C@@H](CN(C)C(=O)Nc2ccccc2)Oc2ncc(C#CC3CCCCC3)cc2C1=O | – | inconclusive: 28.2 µM [activator, single point]
Cc1noc(C)c1NC(=O)N(C)C[C@@H]1OCc2ccccc2-c2c(n(C)c3ccccc23)C(=O)N([C@H](C)CO)C[C@H]1C | inactive: 27.8% | –
CC(C)Oc1ccc(C2CC(=O)N(c3ccc(N(C)C)cc3)C2=O)cc1 (centres undefined) | – | inconclusive: 7.94 µM [activator, single point]
Cc1cccc(N(C(=O)c2csnn2)C(C(=O)NC2CCCCC2)c2ccccn2)c1C (centres undefined) | – | inconclusive: 28.2 µM [activator, partial curve, poor fit]
Cc1ccc(S(=O)(=O)N2CCOC23CCN(C(=O)c2ccc(Cl)cc2Cl)CC3)cc1 | – | inconclusive: 50.1 µM [activator, single point]
Cc1ccc(OCc2nnn(CC(=O)NS(=O)(=O)c3c(C)noc3C)c2-c2ccccc2)cc1 | inactive: 8.29% | –
Cc1ccc(C)c2[nH]c(=O)c(CN(Cc3ccco3)C(=O)Nc3ccccc3)cc12 | – | inconclusive: 10 µM [activator, partial curve]
COc1ccc(C=CC(=O)c2c(OC)cc(OC)c(OC)c2O)cc1 | inactive: -11.8% | –
COc1ccc(-c2nnc(SCC(=O)N3CCc4ccccc4C3)o2)cc1 | – | inconclusive: 35.5 µM [activator, single point]
O=C(CN(Cc1cccs1)S(=O)(=O)c1ccc(S(=O)(=O)NC2CCCCC2)cc1)Nc1ccccc1 | – | inconclusive: 7.08 µM [activator, partial curve, poor fit]
O=C(CSC1=Nc2ccccc2C2=NC(Cc3c[nH]c4ccccc34)C(=O)N12)NC1CCCCC1 (centres undefined) | – | inconclusive: 39.8 µM [activator, partial curve, poor fit]
CCOc1ccc2nc(NS(=O)(=O)c3ccc4c(c3)n(C)c(=O)n4C)sc2c1 | – | inconclusive: 20 µM [activator, single point]
Cc1cc(C)c(S(=O)(=O)NCCc2sc(-c3cccnc3)nc2C)c(C)c1 | inactive: 23.1% | –
CCOC(=O)N1CCN(C(=O)C[C@H]2C[C@@]3(C(=O)OC)C(=C[C@H](C(C)(C)C)O[C@@H]3C)N(Cc3ccc(Cl)cc3Cl)C2=O)CC1 | – | active: 6.31 µM
C#CCNC(=O)C[C@H]1C[C@@]2(C(=O)OC)C(=C[C@H](COCc3ccccc3)O[C@@H]2C)N(Cc2cccc3ccccc23)C1=O | – | inconclusive: 31.6 µM [activator, single point]
CC(=O)Oc1ccccc1Cn1c(C)c(C(=O)NCc2ccc(Cl)c(Cl)c2)sc1=O | – | inconclusive: 50.1 µM [activator, single point]
Cc1cc(S(=O)(=O)Nc2cc3c(cc2Cl)n(C)c(=O)c(=O)n3C)ccc1F | inactive: -5.11% | –
Cc1cccc2sc(N(CCCN(C)C)C(=O)c3ccc(S(=O)(=O)N4CCc5ccccc5C4)cc3)nc12 | – | inconclusive: 39.8 µM [activator, partial curve, poor fit]
Cc1c(C(=O)N2CCN(c3ccccn3)CC2)oc2c1C(=O)CC(C)(C)C2 | inactive: -24% | –
O=C1N[C@@H](Cc2c[nH]c3ccccc23)COC(=O)[C@@H](Cc2ccc(F)cc2)CC/C=C/C[C@@H]1CC(=O)N(CCO)Cc1ccccc1 | – | inconclusive: 11.2 µM [activator, partial curve, poor fit]

SMILES | growth rescue (activation) | Potency
CCCCOc1ccc(N2CC(C(=O)NCCc3ccc(OC)c(OC)c3)CC2=O)cc1 (centres undefined) | – | inconclusive: 50.1 µM [activator, single point]
Cc1cc(Cl)c2oc(C(=O)N(CCO)Cc3ccccc3)c(C)c2c1 | – | inconclusive: 44.7 µM [activator, single point]
Cc1ccc(C)c(S(=O)(=O)N2C(=S)NC(=O)C2C(C)C)c1 (centres undefined) | inactive: -8.68% | –
O=C(CNC(=O)C1CCCCC1)OCn1nnc2ccccc2c1=O | – | inconclusive: 50.1 µM [activator, single point]
Cc1ccc(C)c(N2CCN(S(=O)(=O)c3ccc(-c4cc(C(F)(F)F)on4)s3)CC2)c1 | inactive: -5.45% | –
CCN(CC)C(=O)C1=C(C)NC(=S)NC1c1cn(-c2ccccc2)nc1-c1ccc(Cl)cc1 (centres undefined) | – | inconclusive: 14.1 µM [activator, partial curve, poor fit]
CCCc1ccc(C2=Nn3c(nnc3C(C)C)SC2)cc1 | – | inconclusive: 15.8 µM [activator, partial curve]
CCOC(=O)c1cc(-c2ccc(OC)cc2)n(CCC(=O)NCc2ccccc2OC)c1C | – | inconclusive: 44.7 µM [activator, single point]
c1ccc(-n2nnnc2-c2cnc(-c3cccnc3)nc2-c2cccs2)cc1 | – | inconclusive: 39.8 µM [activator, partial curve, poor fit]
Cn1ncc2c(NCc3ccc(Cl)cc3)ncnc21 | inactive: -13.2% | –
O=C(Nc1nnc(-c2ccc(Cl)cc2)o1)Nc1ccccc1Cl | inactive: -3.4% | –
CN(c1ccc(Cl)cc1)c1cc2c(c3c1ccn3C)C1CCC2O1 (centres undefined) | – | inconclusive: 50.1 µM [activator, single point]
O=C(O)c1ccc(-c2ccc(Cl)cc2Cl)o1 | inactive: 7.09% | –
COC(=O)[C@]12CCCCC=C1N(Cc1cccc3ccccc13)C(=O)[C@H](CC(=O)NCc1cccc3ccccc13)C2 | – | inconclusive: 28.2 µM [activator, single point]
CCOC(=O)c1c(-c2ccc(C)o2)csc1NC(=S)NC(=O)c1cccs1 | inactive: -1.43% | –
CC(C)OCCCNc1sc(S(=O)(=O)c2ccccc2)nc1S(=O)(=O)c1ccc(Cl)cc1 | – | active: 31.6 µM
CCOC(=O)[C@H]1[C@H]2COc3ccc(OC)cc3[C@@H]2N2C(=O)c3ccc(Cl)cc3NC(=O)[C@@]12C | – | inconclusive: 35.5 µM [activator, partial curve, poor fit]
Cc1ccc(NC(=O)CCCn2c(=O)oc3ccccc32)c(O)c1 | inactive: 15.2% | –
COc1ccc(N2CC3=C(C2=O)C(c2ccc(O)c(OC)c2)NC(=O)N3C)cc1 (centres undefined) | inactive: -6.32% | –
CCOC(=O)[C@]12CCC=C1N(Cc1ccc(Cl)cc1Cl)C(=O)[C@H](CC(=O)N1CCCCC1)C2 | – | inconclusive: 22.4 µM [activator, partial curve]
